Source: PubChem BioAssay AID1460 (National Center for Advancing Translational Sciences (NCATS), 2008)
Among all 270,000 compounds or so, about 5,800 (2.1%) were called active. The inconclusive results got no clear call from the source; some entries with a clear call stand among them for comparison. Calls come from the whole dose curve; as a rule, active = well fitted inhibition curve with a large enough effect; inconclusive = small, poorly fitted or top-dose-only effect; inactive = flat fitted curve, though single readings scatter. Potencies of inconclusive entries are doubtful fits and often do not repeat.

These compounds were tested against Microtubule-associated protein tau (Homo sapiens) (UniProt P10636) (assay: qHTS for Inhibitors of Tau Fibril Formation, Thioflavin T Binding). Conditions: recombinant tau K18 P301L (four-repeat tau fragment), heparin-induced fibrillization, ThT fluorescence; series mostly up to 57.4 µM; activity, negative = inhibition: at the top concentration.
Method in brief: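 In this qHTS, human K18 P301L tau is incubated with compound and heparin for 6 hr at 37 C, and Thioflavin T fluorescence then reports fibril load.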
% is set by controls: 0 for no effect and ±100 for the full control effect; potency is the fitted concentration of half-maximal effect; tags give direction and shape of the fitted curve.
Note: nearly all actives have a fitted effect of over 55% in size.

Chain of UniProt P10636 (P10636 whole entry, looked up, the tested form may be a part): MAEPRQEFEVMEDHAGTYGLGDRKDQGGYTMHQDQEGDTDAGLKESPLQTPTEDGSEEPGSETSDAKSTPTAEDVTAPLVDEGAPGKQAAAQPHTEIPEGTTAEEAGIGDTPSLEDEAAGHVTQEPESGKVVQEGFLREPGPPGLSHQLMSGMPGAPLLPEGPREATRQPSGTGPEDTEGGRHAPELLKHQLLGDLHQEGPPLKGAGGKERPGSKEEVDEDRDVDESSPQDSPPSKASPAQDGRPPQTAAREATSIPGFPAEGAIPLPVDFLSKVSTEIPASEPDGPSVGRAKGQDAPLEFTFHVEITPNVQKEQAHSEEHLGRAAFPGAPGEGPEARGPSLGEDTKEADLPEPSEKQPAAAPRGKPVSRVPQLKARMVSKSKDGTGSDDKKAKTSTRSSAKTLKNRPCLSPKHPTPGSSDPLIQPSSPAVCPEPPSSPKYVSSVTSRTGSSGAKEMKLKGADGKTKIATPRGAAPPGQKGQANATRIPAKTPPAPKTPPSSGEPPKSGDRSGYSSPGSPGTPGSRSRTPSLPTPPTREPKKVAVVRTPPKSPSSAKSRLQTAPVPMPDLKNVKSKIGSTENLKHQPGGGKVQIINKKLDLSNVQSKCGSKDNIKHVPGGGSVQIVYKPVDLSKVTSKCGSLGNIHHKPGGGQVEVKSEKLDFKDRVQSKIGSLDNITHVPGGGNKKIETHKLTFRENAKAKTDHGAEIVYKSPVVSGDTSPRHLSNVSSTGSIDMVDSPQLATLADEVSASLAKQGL

| Compound | Potency | activity, negative = inhibition |
| --- | --- | --- |
| COc1ccc(C)cc1NC(=O)CN1CCN(CC(=O)Nc2ccccc2F)CC1 | inactive | – |
| O=c1[nH]c(=S)[nH]c2[nH]c(=S)[nH]c12 | inconclusive: 22.4 µM [inhibitor, single point] | – |
| CC(C)C(=O)Nc1ccc(C(=O)NNC(=S)NC(=O)c2ccco2)cc1 | inconclusive: 31.6 µM [inhibitor, single point] | – |
| CCc1cc2ccc(C)cc2nc1SCC(=O)Nc1cc(C)on1 | – | inactive: 1.65% |
| CC1=NOC(=O)/C1=C/c1ccc(N(C)C)cc1 | inconclusive: 12.6 µM [inhibitor, partial curve] | – |
| Cc1cccc(N2C(S)=C(C#N)C(=O)NC23CCCCC3)c1 | active: 31.6 µM | – |
| CCCn1c(N)c(Br)c(=O)[nH]c1=O | inconclusive: 22.4 µM [inhibitor, single point] | – |
| COc1ccc2[nH]cc(CCNC(=O)Nc3ccccc3C)c2c1 | – | inactive: -8.86% |
| CCSc1nnc(NC(=O)c2nc(-c3ccccc3)n(-c3ccccc3)n2)s1 | inconclusive: 14.1 µM [inhibitor, partial curve, poor fit] | – |
| C/C(=N\NC(=O)COc1ccc(C)cc1Br)c1cc([N+](=O)[O-])cs1 | inconclusive: 2 µM [inhibitor, full curve] | – |
| Cc1cccc(N2C(=O)CC(SC(=Nc3ccccc3)Nc3ccccc3)C2=O)c1 (stereo not given) | – | inactive: -3.16% |
| CCn1c(CSc2nccn2C)nc2cc(C(=O)O)ccc21 | active: 3.98 µM | – |
| COCCNC(=O)CSc1nnc2c(Cl)cc(Cl)cn12 | active: 12.6 µM | – |
| O=c1c(Cl)c(N/N=C/c2ccc(Cl)cc2)cnn1-c1ccccc1 | inconclusive: 10 µM [inhibitor, partial curve] | – |
| COc1ccc(OC)c(CCNC(=O)CCCc2nnc3n(C)c(=O)c4sccc4n23)c1 | – | inactive: 3.06% |
| Cc1cccc(-c2cc3c(nn2)-c2ccccc2C3=O)c1 | inconclusive: 10 µM [inhibitor, partial curve] | – |
| CCC(=O)Nc1sc2c(c1C(N)=O)CCC2 | – | inactive: -3.73% |
| COc1cccc(N2C(=O)CSC23C(=O)N(CC(=O)Nc2cc(C)ccc2C)c2ccccc23)c1 (stereo not given) | – | inactive: -16.6% |
| N#CC1=C(N)Oc2[nH]c(=S)[nH]c(=O)c2C12C(=O)Nc1ccccc12 (stereo not given) | inconclusive: 10 µM [inhibitor, partial curve] | – |
| C/C(=N\OCc1ccc(C#N)cc1)c1cc2ccccc2o1 | inconclusive: 20 µM [inhibitor, partial curve, poor fit] | – |
| CCCCNC(=O)c1sc2nc(C)cc(COC)c2c1-n1cccc1 | inconclusive: 3.55 µM [inhibitor, partial curve, poor fit] | – |
| C/C(Cn1cnc([N+](=O)[O-])n1)=N\NC(=O)c1ccc(O)cc1O | inconclusive: 4.47 µM [inhibitor, single point] | – |
| O=C(COc1ccccc1)Nn1cnc2ccccc21 | – | inactive: -7.09% |
| COC(=O)c1ccc(CSc2nnc(C)s2)cc1 | inconclusive: 31.6 µM [inhibitor, partial curve] | – |
| COc1ccc(NC(=O)CSC2=Nc3ccccc3C3=NC(CCC(=O)NCCc4ccccc4)C(=O)N23)cc1 (stereo not given) | inconclusive: 22.4 µM [activator, single point] | – |

| Compound | Potency | activity, negative = inhibition |
| --- | --- | --- |
| Cc1cc(F)ccc1S(=O)(=O)Nc1ccccc1C(=O)Nc1ccccc1-c1nc2ccccc2[nH]1 | – | inactive: 8.21% |
| O=S(=O)(c1ccc(Cl)cc1)n1c(Cc2ccccc2)nc2ccccc21 | – | inactive: 3.74% |
| COC(=O)[C@@]1(Cc2ccc(OC)cc2)[C@H]2c3cc(C(=O)N(C)C)n(Cc4nc5ccccc5[nH]4)c3C[C@H]2CN1C(=O)c1ccccc1 | inconclusive: 39.8 µM [inhibitor, single point] | – |
| O=C1C2=C(Nc3ccccc3SC2c2c(F)cccc2Cl)c2ccccc21 (stereo not given) | inconclusive: 5.62 µM [inhibitor, partial curve] | – |
| O=C(Nc1cccc(Cl)c1)Nc1sccc1-c1nc2ccccc2s1 | inconclusive: 15.8 µM [inhibitor, partial curve] | – |
| CCOC(=O)c1sc(NC(=O)c2nc(SC)ncc2Cl)c(C(=O)OCC)c1C | – | inactive: 9.13% |
| CCOC(=O)c1c(C)oc2cc(Br)c(O)c(Br)c12 | inconclusive: 10 µM [inhibitor, partial curve] | – |
| CC1=C(C(=O)Nc2ccc(C)cc2C)C(c2ccc(C(C)C)cc2)n2nc(C(F)(F)F)nc2N1 (stereo not given) | inconclusive: 2.24 µM [inhibitor, full curve, poor fit] | – |
| CC(=O)Oc1ccc(/C=C2/CCc3ccccc3C2=O)cc1 | inconclusive: 3.55 µM [inhibitor, partial curve] | – |
| COc1ccc(-n2c(-c3ccc(Cl)cc3)cc3c2CC(C)(C)CC3=O)c(OC)c1 | – | inactive: -16% |
| Cc1ccc(NC(=O)CSc2nnc(-c3ccccc3C)o2)cc1C | – | inactive: -6.88% |
| Cc1cccc(OCc2nnc(SCC(=O)Nc3nccs3)o2)c1 | inconclusive: 2 µM [inhibitor, full curve, poor fit] | – |
| CCOC(=O)c1c(C=O)c(C)n(Cc2ccc(C)cc2)c1C | inconclusive: 39.8 µM [inhibitor, single point] | – |
| CC(C)c1ccc(NS(=O)(=O)c2ccc3[nH]cc(C(=O)NC4CCCCC4)c(=O)c3c2)cc1 | inconclusive: 10 µM [activator, partial curve] | – |
| Cc1cccc(OCCn2nnc3sc4c(c3c2=O)CCCC4)c1 | inconclusive: 5.62 µM [inhibitor, full curve] | – |
| C=CCOc1ccc2c(CC)cc(=O)oc2c1C | inconclusive: 14.1 µM [inhibitor, partial curve] | – |
| CN1/C(=C\C=N\NC(=O)c2ccccc2Br)C(C)(C)c2ccccc21 | inconclusive: 14.1 µM [inhibitor, partial curve] | – |
| CNCc1ccccc1Sc1cccc(O)c1 | – | inactive: 3.35% |
| Cc1ccc(C)c(S(=O)(=O)NCC(c2ccc(N(C)C)cc2)N2CCOCC2)c1 (stereo not given) | inconclusive: 31.6 µM [inhibitor, single point] | – |
| O=C(CCl)N1CCN2C(=O)c3ccccc3C12c1ccc(Cl)cc1 (stereo not given) | – | inactive: -5.7% |
| Cc1ccc(C)c(NC(=O)C(C)N(c2ccccc2)S(C)(=O)=O)c1 (stereo not given) | – | inactive: 3.43% |
| Cc1cc(C)n(C(=O)c2ccc([N+](=O)[O-])cc2N)n1 | inconclusive: 22.4 µM [inhibitor, partial curve] | – |
| COC(=O)c1ccc(OC(=O)CCN2C(=O)C3C4c5ccccc5C(c5ccccc54)C3C2=O)cc1 (stereo not given) | inconclusive: 31.6 µM [inhibitor, single point] | – |
| COc1ccc(-c2noc(-c3ccc(Br)o3)n2)cc1 | inconclusive: 0.355 µM [inhibitor, full curve] | – |
| CC1CC2=C(NC(=S)NC2c2cccc(F)c2)/C(=C/c2cccc(F)c2)C1 (stereo not given) | – | inactive: -14.2% |

| Compound | Potency | activity, negative = inhibition |
| --- | --- | --- |
| CCN(CC)S(=O)(=O)c1cc(C(=O)OCC(=O)Nc2ccc(-c3nc4ccc(C)cc4s3)cc2)ccc1F | – | inactive: -4.34% |
| COc1ccc(O)c(C(=O)CC(=O)c2ccc(F)cc2)c1 | inconclusive: 15.8 µM [inhibitor, partial curve] | – |
| Cc1cc(=O)[nH]c(NN=C(CC(C)C)CC(C)C)n1 | – | inactive: -13.3% |
| Cc1cccc2cc(C#N)c(SCC#N)nc12 | inconclusive: 3.98 µM [inhibitor, full curve] | – |
| COc1ccc(C(=O)/C=C/c2cn(CC(O)CN(CC(C)C)CC(C)C)c3ccccc23)cc1OC (stereo not given) | inconclusive: 28.2 µM [inhibitor, single point] | – |
| CN(C)c1ccc(C(=S)N2CCCCCC2)cc1 | active: 25.1 µM | – |
| O=C(Nc1nc2c(s1)CCc1ccccc1-2)c1cccs1 | inconclusive: 3.98 µM [inhibitor, full curve] | – |
| Cc1ccc(/C=c2/sc3nnc(-c4ccccc4Cl)n3c2=O)o1 | inconclusive: 28.2 µM [inhibitor, partial curve] | – |
| COc1ccc(NC(=S)Nc2cccc(C(F)(F)F)c2)c(C)c1 | – | inactive: 0.646% |
| Clc1ccc(-c2nnc3n2CCCC3)cc1Cl | – | inactive: -3.95% |
| COc1cccc(-c2cc(C(F)(F)F)nc(NCc3ccc(F)cc3)n2)c1 | inconclusive: 11.2 µM [inhibitor, partial curve, poor fit] | – |
| Cn1c(=O)c2sccc2n2c(CCCC(=O)Nc3ccc(F)c(F)c3)nnc12 | – | inactive: -3.11% |
| COc1cccc(-c2nc(-c3ccc(NC(=O)c4cccs4)cc3)no2)c1 | – | inactive: 7.69% |
| O=C(NCCCN1CCOCC1)c1cc2ccccc2o1 | – | inactive: -12.2% |
| CNC(=O)c1c(NC(=O)c2cc(=O)c3ccccc3o2)sc2c1CCC2 | inconclusive: 8.91 µM [inhibitor, partial curve] | – |
| COCCNC(=S)NNc1ccc(Cl)c(C(=O)O)c1 | inconclusive: 31.6 µM [inhibitor, partial curve] | – |
| CCOc1cccc2cc(C(N)=O)c(=N)oc12 | – | inactive: -14.6% |
| Cc1cccc(NC(=O)c2sc3cccc(Cl)c3c2Cl)c1 | inconclusive: 1.78 µM [inhibitor, full curve] | – |
| Cn1c(=O)n(C)c2cc(/C=N/NC(=S)NCc3ccccc3)ccc21 | inconclusive: 17.8 µM [inhibitor, single point] | – |
| CCCCN(C)S(=O)(=O)c1ccc(C(=O)Nc2nnc(CSC)o2)cc1 | – | inactive: -9.6% |
| COc1ccc(/C=C2\SC(=S)N(CC(=O)NNC(=O)c3ccncc3)C2=O)cc1 | – | inactive: -17.1% |
| Cc1sc(NC(=O)c2ccccc2F)c(CN2CCCCC2)c1C | – | inactive: -3.22% |
| Cc1ccc(O)c(C(=O)c2cnn(C(=O)COc3ccccc3C#N)c2)c1 | inconclusive: 22.4 µM [inhibitor, partial curve] | – |
| Cc1ccc(N)cc1-n1c(C)ccc1C | inconclusive: 31.6 µM [inhibitor, partial curve] | – |
| C=C(C)C(=O)OC1(C(F)(F)F)Oc2cc(C)ccc2NC1=O (stereo not given) | active: 15.8 µM | – |
